# The list shows a part of the results.
# B1: GS13686A-pdi-553-26-553 (Parabacteroides distasonis) (protein)
# chain: NENPDKPTDDVNYNMNEPRLASTLRGGLIIEGNVEQRLKPLQIDFYSQMTVDGGGWGTKNYIQDDEWNNLVWEEYLKQIASINIVIRSLTEKDKDAYANTIAFARIWRVYVHTLAADKFGPMPFPAYEIVEANPPYKSLKDIYDEYFRELDAAINGFNDSAQPIFSDAGIDLIYKNDVSKWKRFANSLRLRLAVRLTEVDQEKCIAEANAAISSPAGLISDKADNAYMPPKADGSWGQDYNYTMFQITWSGPICMSKSVEKLVTNIGGVAWPQGVVNQTSGVAVSSVHPEKVDPRAPKIFQPGIENGDWKGLVYGPKAEEANTGIYQSKQCAELGFIIKDGYPYKSRPYDLFLSEEVHFLKAELYARGFIAGDAKSEYEAGVRASFATWGVTSEVDDYLTSTEKNEAGTSARYDDQQGAGNTALEKIITQKYIAGIPDLAQEGWNDKRRLNLPRLDVAVYRDQAVYNNNDKDILKSANFIKRMRYPTKESLINATEYEKGKSMLGGKGDIVSTPLWWDKNSNYCTSSK
# What was measured:
# Test in all cases: glycan array binding signal (z-score within array); higher = stronger binding
# Conditions in all cases: glycan notation: IUPAC condensed, linker removed
# [1] = target: Fuc(a1-2)[Gal(a1-3)]Gal(b1-4)GlcNAc(b1-2)Man(a1-3)[Fuc(a1-2)[Gal(a1-3)]Gal(b1-4)GlcNAc(b1-2)Man(a1-6)]Man(b1-4)GlcNAc(b1-4)[Fuc(a1-6)]GlcNAc
# How it was run: (§1)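 The binding signal is a Z-score computed within each array. Data were drawn from 3228 arrays in the Consortium for Functional Glycomics database, restricted to those with a known protein sequence. Scores were averaged over arrays of the same protein sequence at different concentrations or buffers, and over linkers, and negative values can be taken as non-binding.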
# [2] = target: Fuc(a1-2)[Gal(a1-3)]Gal(b1-4)GlcNAc(b1-3)GalNAc
# How it was run: as §1
# [3] = target: Fuc(a1-2)[Gal(a1-3)]Gal(b1-4)GlcNAc(b1-3)[Fuc(a1-2)[Gal(a1-3)]Gal(b1-4)GlcNAc(b1-6)]GalNAc
# How it was run: as §1
# [4] = target: Fuc(a1-2)[Gal(a1-3)]Gal(b1-4)GlcNAc(b1-6)GalNAc
# How it was run: as §1
# [5] = target: Fuc(a1-2)[Gal(a1-3)]Gal(b1-4)[Fuc(a1-3)]Glc
# How it was run: as §1
# [6] = target: Fuc(a1-2)[Gal(a1-3)]Gal(b1-4)[Fuc(a1-3)]GlcNAc
# How it was run: as §1
# [7] = target: Fuc(a1-2)[Gal(a1-3)]Gal(b1-4)[Fuc(a1-3)]GlcNAc(b1-3)GalNAc
# How it was run: as §1
# [8] = target: Fuc(a1-2)[Gal(a1-4)]Gal(b1-4)GlcNAc
# How it was run: as §1
# [9] = target: Fuc(a1-2)[GalNAc(a1-3)]Gal
# How it was run: as §1
# [10] = target: Fuc(a1-2)[GalNAc(a1-3)]Gal(b1-3)GalNAc(a1-3)[Fuc(a1-2)]Gal(b1-4)GlcNAc
# How it was run: as §1
# [11] = target: Fuc(a1-2)[GalNAc(a1-3)]Gal(b1-3)GalNAc(b1-3)Gal(a1-4)Gal(b1-4)Glc
# How it was run: as §1
# [12] = target: Fuc(a1-2)[GalNAc(a1-3)]Gal(b1-3)GlcNAc
# How it was run: as §1
# [13] = target: Fuc(a1-2)[GalNAc(a1-3)]Gal(b1-3)GlcNAc(b1-2)Man(a1-3)[Fuc(a1-2)[GalNAc(a1-3)]Gal(b1-3)GlcNAc(b1-2)Man(a1-6)]Man(b1-4)GlcNAc(b1-4)GlcNAc
# How it was run: as §1
# [14] = target: Fuc(a1-2)[GalNAc(a1-3)]Gal(b1-3)GlcNAc(b1-2)Man(a1-3)[Fuc(a1-2)[GalNAc(a1-3)]Gal(b1-3)GlcNAc(b1-2)Man(a1-6)]Man(b1-4)GlcNAc(b1-4)[Fuc(a1-6)]GlcNAc
# How it was run: as §1
# [15] = target: Fuc(a1-2)[GalNAc(a1-3)]Gal(b1-3)GlcNAc(b1-3)GalNAc
# How it was run: as §1
# [16] = target: Fuc(a1-2)[GalNAc(a1-3)]Gal(b1-3)GlcNAc(b1-6)GalNAc
# How it was run: as §1
# [17] = target: Fuc(a1-2)[GalNAc(a1-3)]Gal(b1-4)Glc
# How it was run: as §1
# [18] = target: Fuc(a1-2)[GalNAc(a1-3)]Gal(b1-4)GlcNAc
# How it was run: as §1
# [19] = target: Fuc(a1-2)[GalNAc(a1-3)]Gal(b1-4)GlcNAc(b1-2)Man
# How it was run: as §1
# [20] = target: Fuc(a1-2)[GalNAc(a1-3)]Gal(b1-4)GlcNAc(b1-2)Man(a1-3)[Fuc(a1-2)[GalNAc(a1-3)]Gal(b1-4)GlcNAc(b1-2)Man(a1-6)]Man(b1-4)GlcNAc(b1-4)GlcNAc
# How it was run: as §1
# [21] = target: Fuc(a1-2)[GalNAc(a1-3)]Gal(b1-4)GlcNAc(b1-2)Man(a1-3)[Fuc(a1-2)[GalNAc(a1-3)]Gal(b1-4)GlcNAc(b1-2)Man(a1-6)]Man(b1-4)GlcNAc(b1-4)[Fuc(a1-6)]GlcNAc
# How it was run: as §1
# [22] = target: Fuc(a1-2)[GalNAc(a1-3)]Gal(b1-4)GlcNAc(b1-3)Gal(b1-4)GlcNAc
# How it was run: as §1
# [23] = target: Fuc(a1-2)[GalNAc(a1-3)]Gal(b1-4)GlcNAc(b1-3)Gal(b1-4)GlcNAc(b1-3)Gal(b1-4)GlcNAc
# How it was run: as §1
# [24] = target: Fuc(a1-2)[GalNAc(a1-3)]Gal(b1-4)GlcNAc(b1-3)GalNAc
# How it was run: as §1
# [25] = target: Fuc(a1-2)[GalNAc(a1-3)]Gal(b1-4)GlcNAc(b1-3)[Fuc(a1-2)[GalNAc(a1-3)]Gal(b1-4)GlcNAc(b1-6)]GalNAc
# How it was run: as §1
# [26] = target: Fuc(a1-2)[GalNAc(a1-3)]Gal(b1-4)GlcNAc(b1-6)GalNAc
# How it was run: as §1
# [27] = target: Fuc(a1-2)[GalNAc(a1-3)]Gal(b1-4)[Fuc(a1-3)]GlcNAc
# How it was run: as §1
# [28] = target: Fuc(a1-2)[GalNAc(a1-3)]Gal(b1-4)[Fuc(a1-3)]GlcNAc(b1-3)GalNAc
# How it was run: as §1
# [29] = target: Fuc(a1-2)[GalNAc(a1-4)]Gal(b1-4)GlcNAc
# How it was run: as §1
# [30] = target: Fuc(a1-2)[GalNAc(b1-3)]Gal
# How it was run: as §1
# [31] = target: Fuc(a1-3)GlcNAc
# How it was run: as §1
# [32] = target: Fuc(a1-3)[Gal(b1-4)]Glc6S
# How it was run: as §1
# [33] = target: Fuc(a1-3)[Gal(b1-4)]GlcNAc
# How it was run: as §1
# [34] = target: Fuc(a1-3)[Gal(b1-4)]GlcNAc(b1-2)Man
# How it was run: as §1
# [35] = target: Fuc(a1-3)[Gal(b1-4)]GlcNAc(b1-2)Man(a1-3)[Fuc(a1-3)[Gal(b1-4)]GlcNAc(b1-2)Man(a1-6)]Man(b1-4)GlcNAc(b1-4)GlcNAc
# How it was run: as §1
# [36] = target: Fuc(a1-3)[Gal(b1-4)]GlcNAc(b1-2)Man(a1-3)[Fuc(a1-3)[Gal(b1-4)]GlcNAc(b1-2)Man(a1-6)]Man(b1-4)GlcNAc(b1-4)[Fuc(a1-6)]GlcNAc
# How it was run: as §1
# [37] = target: Fuc(a1-3)[Gal(b1-4)]GlcNAc(b1-3)Gal(b1-3)[Fuc(a1-4)]GlcNAc
# How it was run: as §1
binder,measurement,setting,value
B1,glycan array binding signal (z-score),[1],-0.233
same,glycan array binding signal (z-score),[2],-0.353
same,glycan array binding signal (z-score),[3],0.003
same,glycan array binding signal (z-score),[4],0.081
same,glycan array binding signal (z-score),[5],0.037
same,glycan array binding signal (z-score),[6],-0.347
same,glycan array binding signal (z-score),[7],0.174
same,glycan array binding signal (z-score),[8],-0.209
same,glycan array binding signal (z-score),[9],-0.041
same,glycan array binding signal (z-score),[10],0.035
same,glycan array binding signal (z-score),[11],-0.124
same,glycan array binding signal (z-score),[12],-0.072
same,glycan array binding signal (z-score),[13],-0.366
same,glycan array binding signal (z-score),[14],0.253
same,glycan array binding signal (z-score),[15],-0.229
same,glycan array binding signal (z-score),[16],-0.199
same,glycan array binding signal (z-score),[17],0.119
same,glycan array binding signal (z-score),[18],-0.367
same,glycan array binding signal (z-score),[19],-0.355
same,glycan array binding signal (z-score),[20],-0.158
same,glycan array binding signal (z-score),[21],0.023
same,glycan array binding signal (z-score),[22],0.224
same,glycan array binding signal (z-score),[23],0.041
same,glycan array binding signal (z-score),[24],-0.083
same,glycan array binding signal (z-score),[25],-0.165
same,glycan array binding signal (z-score),[26],-0.281
same,glycan array binding signal (z-score),[27],-0.306
same,glycan array binding signal (z-score),[28],0.287
same,glycan array binding signal (z-score),[29],1.95
same,glycan array binding signal (z-score),[30],0.038
same,glycan array binding signal (z-score),[31],-0.163
same,glycan array binding signal (z-score),[32],-0.011
same,glycan array binding signal (z-score),[33],-0.209
same,glycan array binding signal (z-score),[34],-0.253
same,glycan array binding signal (z-score),[35],-0.145
same,glycan array binding signal (z-score),[36],0.404
same,glycan array binding signal (z-score),[37],-0.178
